Reference: the supplement of paper PMC4967469
Lines with a small IC50 respond at low doses; where the fit passes the top or lowest dose, that dose stands as a limit. AUC sums up the same curve from the lowest dose to the 256-fold higher top dose: 1 means no effect, lower means more sensitive. A top dose marked as inferred was derived from the fitted curves, not read from the paper.

Compound: O=C1NC(=O)/C(=C\c2ccc3nccnc3c2)S1 [AS605240]
Assay: Viability of human cancer cell lines after 72 h of drug (GDSC screen)
Conditions: top dose inferred
Procedure: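 Human cancer cell lines in 384-well plates, medium with 10% serum, drug for 72 h over a 256-fold dose range (nine 2-fold or five 4-fold steps up to the top dose). Adherent lines were fixed and stained with the nucleic acid dye Syto60, suspension lines read with resazurin; signal relative to control wells, capped at 0 and 100%. One two-parameter sigmoid per drug and line, fitted in a mixed model over all curves with the slope shared within a line.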

| Cell Line | AUC | IC50 |
| --- | --- | --- |
| EJM (lymphoid neoplasm, semi-adherent, top dose 20 µM) | 0.838 | 10.6 µM |
| EKVX (lung adenocarcinoma, adherent, top dose 20 µM) | 0.925 | > 20 µM |
| EM-2 (chronic myeloid leukaemia, suspension, top dose 20 µM) | 0.707 | 5.21 µM |
| EMC-BAC-1 (lung adenocarcinoma, adherent, top dose 20 µM) | 0.902 | > 20 µM |
| EMC-BAC-2 (lung adenocarcinoma, adherent, top dose 20 µM) | 0.845 | 18.6 µM |
| EN (endometrium, adherent, top dose 20 µM) | 0.968 | > 20 µM |
| EPLC-272H (lung squamous cell carcinoma, adherent, top dose 20 µM) | 0.716 | 5.57 µM |
| ES1 (Ewing sarcoma, adherent, top dose 20 µM) | 0.896 | > 20 µM |
| ES3 (Ewing sarcoma, adherent, top dose 20 µM) | 0.93 | > 20 µM |
| ES4 (Ewing sarcoma, adherent, top dose 20 µM) | 0.839 | 16.7 µM |
| ES5 (Ewing sarcoma, adherent, top dose 20 µM) | 0.731 | 6.35 µM |
| ES6 (Ewing sarcoma, adherent, top dose 20 µM) | 0.85 | > 20 µM |
| ES7 (Ewing sarcoma, adherent, top dose 20 µM) | 0.761 | 7.28 µM |
| ES8 (Ewing sarcoma, adherent, top dose 20 µM) | 0.894 | > 20 µM |
| ES-2 (ovary, adherent, top dose 20 µM) | 0.895 | 19.2 µM |
| ESO26 (oesophagus, adherent, top dose 20 µM) | 0.974 | > 20 µM |
| ESO51 (oesophagus, semi-adherent, top dose 20 µM) | 0.653 | 3.96 µM |
| ESS-1 (endometrium, adherent, top dose 20 µM) | 0.948 | > 20 µM |
| ETK-1 (biliary tract, adherent, top dose 20 µM) | 0.87 | > 20 µM |
| EVSA-T (breast, adherent, top dose 20 µM) | 0.928 | > 20 µM |
| EW-1 (Ewing sarcoma, semi-adherent, top dose 20 µM) | 0.674 | 3.64 µM |

| Cell Line | AUC | IC50 |
| --- | --- | --- |
| EW-3 (Ewing sarcoma, adherent, top dose 20 µM) | 0.824 | 14.1 µM |
| EW-7 (Ewing sarcoma, semi-adherent, top dose 20 µM) | 0.842 | 11.6 µM |
| EW-11 (Ewing sarcoma, adherent, top dose 20 µM) | 0.711 | 5.94 µM |
| EW-13 (Ewing sarcoma, suspension, top dose 20 µM) | 0.7 | 4.88 µM |
| EW-16 (Ewing sarcoma, adherent, top dose 20 µM) | 0.873 | > 20 µM |
| EW-18 (Ewing sarcoma, suspension, top dose 20 µM) | 0.829 | 13.6 µM |
| EW-24 (Ewing sarcoma, semi-adherent, top dose 20 µM) | 0.98 | > 20 µM |
| EoL-1-cell (haematopoietic neoplasm, suspension, top dose 20 µM) | 0.856 | 13.2 µM |
| FADU (head and neck, adherent, top dose 20 µM) | 0.89 | > 20 µM |
| FLO-1 (oesophagus, adherent, top dose 20 µM) | 0.881 | > 20 µM |
| FTC-133 (thyroid, adherent, top dose 20 µM) | 0.974 | > 20 µM |
| FU97 (stomach, adherent, top dose 20 µM) | 0.867 | 18.9 µM |
| FU-OV-1 (ovary, adherent, top dose 20 µM) | 0.719 | 6.44 µM |
| Farage (B-cell lymphoma, suspension, top dose 20 µM) | 0.81 | 8.27 µM |
| G-292 Clone A141B1 (osteosarcoma, adherent, top dose 20 µM) | 0.976 | > 20 µM |
| G-401 (kidney, adherent, top dose 20 µM) | 0.848 | 17.1 µM |
| G-402 (soft tissue, adherent, top dose 20 µM) | 0.811 | 15.3 µM |
| G-MEL (melanoma, adherent, top dose 20 µM) | 0.118 | < 0.0781 µM |
| GAK (melanoma, adherent, top dose 20 µM) | 0.93 | > 20 µM |
| GAMG (glioma, adherent, top dose 20 µM) | 0.884 | > 20 µM |
| GB-1 (glioma, adherent, top dose 20 µM) | 0.79 | 10.7 µM |

| Cell Line | AUC | IC50 |
| --- | --- | --- |
| GCIY (stomach, adherent, top dose 20 µM) | 0.696 | 4.81 µM |
| GCT (soft tissue, adherent, top dose 20 µM) | 0.982 | > 20 µM |
| GDM-1 (acute myeloid leukaemia, suspension, top dose 20 µM) | 0.654 | 3.28 µM |
| GI-1 (glioma, adherent, top dose 20 µM) | 0.854 | 14.7 µM |
| GI-ME-N (neuroblastoma, adherent, top dose 20 µM) | 0.919 | > 20 µM |
| GMS-10 (glioma, adherent, top dose 20 µM) | 0.983 | > 20 µM |
| GOTO (neuroblastoma, adherent, top dose 20 µM) | 0.975 | > 20 µM |
| GP5d (large intestine, adherent, top dose 20 µM) | 0.869 | 15.2 µM |
| GR-ST (lymphoblastic leukaemia, suspension, top dose 20 µM) | 0.866 | > 20 µM |
| GRANTA-519 (B-cell lymphoma, suspension, top dose 20 µM) | 0.806 | 8.99 µM |
| GT3TKB (stomach, adherent, top dose 20 µM) | 0.99 | > 20 µM |
| H4 (glioma, adherent, top dose 20 µM) | 0.909 | > 20 µM |
| H9 (lymphoid neoplasm, suspension, top dose 20 µM) | 0.909 | 19.2 µM |
| H290 (mesothelioma, adherent, top dose 20 µM) | 0.863 | 15 µM |
| H513 (mesothelioma, semi-adherent, top dose 20 µM) | 0.986 | > 20 µM |
| H2369 (mesothelioma, adherent, top dose 20 µM) | 0.969 | > 20 µM |
| H2373 (mesothelioma, adherent, top dose 20 µM) | 0.73 | 6.76 µM |
| H2461 (mesothelioma, adherent, top dose 20 µM) | 0.963 | > 20 µM |
| H2591 (mesothelioma, adherent, top dose 20 µM) | 0.959 | > 20 µM |
| H2595 (mesothelioma, adherent, top dose 20 µM) | 0.966 | > 20 µM |
| H2722 (mesothelioma, adherent, top dose 20 µM) | 0.927 | > 20 µM |

| Cell Line | AUC | IC50 |
| --- | --- | --- |
| H2731 (mesothelioma, adherent, top dose 20 µM) | 0.668 | 3.95 µM |
| H2795 (mesothelioma, adherent, top dose 20 µM) | 0.676 | 3.85 µM |
| H2803 (mesothelioma, adherent, top dose 20 µM) | 0.984 | > 20 µM |
| H2804 (mesothelioma, adherent, top dose 20 µM) | 0.897 | > 20 µM |
| H2818 (mesothelioma, adherent, top dose 20 µM) | 0.976 | > 20 µM |
| H2869 (mesothelioma, adherent, top dose 20 µM) | 0.862 | > 20 µM |
| H3118 (head and neck, adherent, top dose 20 µM) | 0.662 | 3.7 µM |
| H3255 (lung adenocarcinoma, adherent, top dose 20 µM) | 0.936 | > 20 µM |
| H-EMC-SS (chondrosarcoma, adherent, top dose 20 µM) | 0.859 | > 20 µM |
| HA7-RCC (kidney, adherent, top dose 20 µM) | 0.909 | > 20 µM |
| HAL-01 (lymphoblastic leukaemia, suspension, top dose 20 µM) | 0.451 | 0.937 µM |
| HARA (lung squamous cell carcinoma, adherent, top dose 20 µM) | 0.756 | 7.86 µM |
| HC-1 (hairy cell leukaemia, suspension, top dose 20 µM) | 0.772 | 7.43 µM |
| HCC38 (breast, adherent, top dose 20 µM) | 0.925 | > 20 µM |
| HCC70 (breast, adherent, top dose 20 µM) | 0.858 | 15.9 µM |
| HCC202 (breast, adherent, top dose 20 µM) | 0.656 | 4.05 µM |
| HCC1143 (breast, adherent, top dose 20 µM) | 0.79 | 13.1 µM |
| HCC1187 (breast, suspension, top dose 20 µM) | 0.831 | 11.8 µM |
| HCC1395 (breast, adherent, top dose 20 µM) | 0.983 | > 20 µM |
| HCC1419 (breast, adherent, top dose 20 µM) | 0.883 | > 20 µM |
